# In all, about 110,000 compounds were measured (“z-score”: median about -0.1, highest 2% from about 2 on). The list shows a part of the results. Active and inactive are the calls of the source.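 Rule for the calls: active = z-score in the third read window above 3 or below -3; inactive = the rest.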
# Biological target: Metabotropic glutamate receptor 8 (Rattus norvegicus) (UniProt P70579)
# Assay: rat mGluR8 modulators via GIRK flux, primary screen, cell-based, thallium flux, HTS (AID 488969)
# Conditions: HEK293 rat mGluR8, GIRK (G protein-gated inwardly rectifying potassium channel) thallium flux, FluoZin2; at 10 µM; stronger effect = higher value; submaximal glutamate (EC20) added with thallium
# Sequence of UniProt P70579 (P70579 whole entry, looked up): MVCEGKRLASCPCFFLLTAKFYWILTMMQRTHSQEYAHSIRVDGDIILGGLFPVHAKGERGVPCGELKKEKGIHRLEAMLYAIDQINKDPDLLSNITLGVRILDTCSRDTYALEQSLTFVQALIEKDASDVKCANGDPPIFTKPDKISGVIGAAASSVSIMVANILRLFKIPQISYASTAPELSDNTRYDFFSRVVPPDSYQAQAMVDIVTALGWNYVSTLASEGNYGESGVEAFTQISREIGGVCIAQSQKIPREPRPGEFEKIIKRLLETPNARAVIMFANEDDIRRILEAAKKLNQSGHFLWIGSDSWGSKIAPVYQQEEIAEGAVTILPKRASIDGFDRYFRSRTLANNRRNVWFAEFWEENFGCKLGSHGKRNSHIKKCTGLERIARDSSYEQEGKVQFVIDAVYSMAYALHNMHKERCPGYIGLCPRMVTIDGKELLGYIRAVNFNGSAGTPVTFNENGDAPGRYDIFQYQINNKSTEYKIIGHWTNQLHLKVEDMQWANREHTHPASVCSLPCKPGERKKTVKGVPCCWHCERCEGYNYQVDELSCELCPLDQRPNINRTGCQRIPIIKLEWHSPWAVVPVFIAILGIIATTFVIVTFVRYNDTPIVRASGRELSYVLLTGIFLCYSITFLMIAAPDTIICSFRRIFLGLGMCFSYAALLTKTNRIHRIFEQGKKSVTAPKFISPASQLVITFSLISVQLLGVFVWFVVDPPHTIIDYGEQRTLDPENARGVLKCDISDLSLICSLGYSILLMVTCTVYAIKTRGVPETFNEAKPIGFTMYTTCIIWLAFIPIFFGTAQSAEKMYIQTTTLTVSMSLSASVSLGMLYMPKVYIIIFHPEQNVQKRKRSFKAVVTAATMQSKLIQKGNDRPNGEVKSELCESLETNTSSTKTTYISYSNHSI
row,Compound,z-score
1,CCN1/C(=C(\O)c2ccccc2)C(=O)c2ccccc2S1(=O)=O,1.04
2,Cc1ccc(CNC(=O)C(Cc2ccccc2)NS(=O)(=O)c2cccs2)cc1 (stereo not drawn),-0.105
3,CS(=O)(=O)N1CCN(C(=O)c2cc(-c3cccs3)nc3ccccc23)CC1,0.479
4,CCOC(=O)c1ccc(CNC(=O)c2cc(C(C)(C)C)oc2C)o1,-0.962
5,Cc1ccc(OCCNC(=O)Cn2cnc3c(=O)n(C)c(=O)n(C)c32)cc1C,-0.0629
6,CC(C)CCSc1nc2c(c(=O)[nH]c(=O)n2C)n1CCc1ccccc1,0.00527
7,CCCS(=O)(=O)N1CCCC(C(=O)NCCN2CCC(Cc3ccccc3)CC2)C1 (stereo not drawn),-0.184
8,CCC(C)NC(=O)C1CCCN(c2nc(C)cc(OC)n2)C1 (stereo not drawn),-0.0784
9,CCN1CCN(c2nc3c(c(=O)[nH]c(=O)n3C)n2CCCSc2ncccn2)CC1,-0.00295
10,CCOC(=O)C1=C(OCc2ccc(Cl)cc2)C2C=C(C)C=CC2N=C1 (stereo not drawn),-0.322
11,COC(=O)c1ccc(Oc2nc(Nc3ccc(C)c(C)c3)nc(N(C)C)n2)cc1,0.132
12,Cn1c(=O)[nH]c(=O)c2c1nc(N1CCCCC1)n2CCSc1nc2ccccc2o1,0.125
13,COc1ccc(N=C2SC(CC(=O)Nc3ccc(F)cc3)C(=O)N2Cc2ccco2)cc1 (stereo not drawn),-0.198
14,Cc1occc1C(=O)Nc1cccnc1,0.0996
15,Cc1ccc(C(=O)NC(=C(Cl)Cl)S(=O)(=O)c2ccccc2)cc1,-0.676
16,C=CCNC(=O)CCCOc1ccc(C)cc1,-0.456
17,COC(=O)C1=COC(C)C2CN3CCc4c([nH]c5ccccc45)C3CC12 (stereo not drawn),1.46
18,Cc1[nH]n(-c2ccccc2)c(=O)c1/C=N\NC(=O)C1COc2ccccc2O1 (stereo not drawn),-0.0839
19,Cc1ccc(C(C(=O)NC(C)(C)C)N(Cc2ccco2)C(=O)CCC(=O)Nc2nccs2)cc1 (stereo not drawn),-0.178
20,O=[n+]1c2c(n([O-])c3cc(F)c(F)cc31)CCCC2,-0.343
21,CCOC(=O)c1[nH]c2ccc(C)cc2c1N=C(C)N(C)C,-0.443
22,Cc1ccc(OCC(=O)N/N=C\c2cn(Cc3ccccc3)c3ccccc23)cc1C,-0.0858

row,Compound,z-score
1,Cc1ccccc1-n1c(-c2ccc(Cl)cc2)cnc1SCC(=O)NC1CCS(=O)(=O)C1 (stereo not drawn),-0.203
2,Cc1cc(NC(=O)C2C3C=CC(C3)C2C(=O)O)no1 (stereo not drawn),-0.164
3,Cc1cc(C(C)(C)C)oc1C(=O)N(CC(=O)NC1CCCC1)c1cccc(C(F)(F)F)c1,-0.42
4,COC(=O)c1ccccc1NC(=O)C1CCC(=O)N1S(=O)(=O)c1ccc(C)cc1 (stereo not drawn),0.251
5,CC(C)(C)n1nc2c(c1NC(=O)c1ccc(Br)cc1)CS(=O)C2 (stereo not drawn),-0.601
6,COCCn1c(CN2CCN(c3cccc(Cl)c3)CC2)nc2c1c(=O)n(C)c(=O)n2C,0.122
7,OC(COCc1ccccc1)CN1CCN(c2ccccc2)CC1 (stereo not drawn),0.802
8,CN1CCN(C(=O)CN2C(=O)CC(C)(C)S(=O)(=O)c3ccccc32)CC1,1.16
9,COc1cccc(N=C2SC(C(=O)Nc3ccccc3F)CC(=O)N2C)c1 (stereo not drawn),-0.119
10,O=C1C=C(NCc2ccc(Cl)cc2)CCC1,-0.138
11,Cc1onc(-c2c(Cl)cccc2Cl)c1C(=O)Nn1cnnc1,1.65
12,C/C=C/Cn1c(Br)nc2c1c(=O)[nH]c(=O)n2C,-0.224
13,Cn1c(NCC(O)c2ccccc2)nc2c1c(=O)n(Cc1ccc(Cl)cc1)c(=O)n2C (stereo not drawn),-0.833
14,Cc1ccc(NC(=O)c2cc(-c3cccc(O)c3)on2)cc1C,1.73
15,COc1ccc(Cl)cc1N1C(=O)C2CCCN2C1c1sccc1C (stereo not drawn),0.188
16,COc1ccc2c(c1)CC/C2=N\OC(=O)c1cccc(C)c1,-0.125
17,Cc1csc(SCC(=O)NCCc2ccc(Cl)cc2Cl)n1,-0.278
18,CCCOc1ccc(C(C)=O)cc1CC(C(=O)OCC)C(=O)OCC,-0.373
19,C=CCNC(=S)N1CCN(CCN=CC2=C(O)CC(c3ccco3)CC2=O)CC1 (stereo not drawn),-0.0308
20,Cn1c(SCC(=O)Nc2ccc3nc(SCC(=O)N4CCCC4)sc3c2)nnc1-c1ccc(N)cc1,-0.641
21,O=C(O)CNS(=O)(=O)c1ccc(-c2ccccc2)cc1,-0.287
22,COc1ccc(OC)c(S(=O)(=O)N(C)CC(=O)Nc2ccc3c(c2)OCCO3)c1,-0.133

row,Compound,z-score
1,c1ccc(CN2CCN(c3nc(N4CCOCC4)c4ccccc4n3)CC2)cc1,-0.143
2,CC(=O)Nc1ccc(N/C=C/C(=O)c2ccco2)cc1,-0.183
3,Cc1ccnc(NC(=O)c2cc(-n3cnnc3)ccc2Cl)c1,0.0864
4,COc1ccccc1-n1nnnc1SCC(=O)Nc1ccccn1,-0.429
5,O=C(CN(CC(=O)N1CCOCC1)S(=O)(=O)c1ccc(Br)s1)N1CCOCC1,-0.0951
6,NNC(=O)C1CCCn2c1nc1sc3c(c1c2=O)CCCC3 (stereo not drawn),-0.112
7,Cn1nc(C(F)(F)F)c(C(=O)Nc2ccc(F)cc2F)c1Sc1cccc(C(F)(F)F)c1,-0.345
8,Cn1cnnc1Sc1ccc(C(=O)NCCC23CC4CC(CC(C4)C2)C3)cc1[N+](=O)[O-],-0.0314
9,CCOC(=O)c1sc(NC(=O)CSc2ncn(-c3ccccc3)n2)nc1C,-0.633
10,COC(=O)c1c(C)[nH]c(C)c1-c1ccccc1,-0.352
11,NNC(=O)c1ccc(COc2ccc3c(c2)CCC3)cc1,-0.0335
12,COc1ccc(OC)c(-c2[nH]nc3c2C(c2ccco2)C(C#N)=C(N)O3)c1 (stereo not drawn),-1.34
13,Cc1ccc(CNC(=O)C(NS(=O)(=O)c2cccs2)C(C)C)cc1 (stereo not drawn),0.0265
14,CCCc1nnc(NC(=O)CN2C(=O)c3ccccc3C2=O)s1,-0.175
15,Cc1nc2ccc(NC(=O)NCc3ccco3)cc2s1,0.494
16,Cc1nc(CS(=O)(=O)c2ccc(Cl)cc2)cc(Sc2ccccc2Cl)n1,-0.863
17,CO/N=C(/CS(=O)(=O)Cc1ccccc1Cl)c1ccc(Cl)cc1Cl,-0.328
18,Cc1ccc(SCCC(=O)N2CCCC2)cc1,0.426
19,O=S(=O)(c1ccc(S(=O)(=O)n2cnc3ccccc32)cc1)N1CCCCCC1,-1
20,CNC(=O)COc1cccc(C(=O)NCc2ccccc2)c1,-0.158
21,COc1cccc(OCC(=O)Nc2ccccc2NC(C)=O)c1,0.489
22,CCn1cnc2sc(C(=O)Nc3ccc4c(c3)OCO4)c(C)c2c1=O,-0.145

row,Compound,z-score
1,O=C(NCCc1nc2ccccc2[nH]1)c1ccco1,-0.563
2,N#Cc1c(N)nc2c(c1-c1ccncc1)CCCCC2,-0.3
3,CCCSc1nc(N2CCOCC2)c2c(c1C#N)CC(C)(C)SC2,-0.252
4,CC(C)OC(=O)CSc1nc(-c2ccc(F)cc2)cc(C(F)(F)F)n1,-0.0192
5,O=C(NCc1ccc2c(c1)OCO2)c1ccc(-n2cnnn2)cc1,0.434
6,CCOC(=O)CSc1nnc(C2CCCCC2)n1C,0.0879
7,Cc1ccc(OCc2ccc(C(=O)Nc3nc4ccccc4n3Cc3ccccc3)o2)c([N+](=O)[O-])c1,-0.175
8,O=C(O/N=C/C1=C(Cl)c2ccccc2CC1)c1ccc(F)cc1,0.133
9,Fc1ccc2nc(Nc3nc4c(s3)CCCC4)sc2c1,0.157
10,CCOC(=O)C1CCCN(C(=O)c2cc3c(=O)n4cccc(C)c4nc3n2C)C1 (stereo not drawn),-0.803
11,Nn1c(Cc2cccc3ccccc23)nnc1SCC(=O)NC1CCS(=O)(=O)C1 (stereo not drawn),1
12,O=C1c2ccccc2S(=O)(=O)N1CC(O)Cn1c2ccccc2c2ccccc21 (stereo not drawn),0.428
13,CCOc1ccccc1N1CCN(C(=S)NC(=O)C23CC4CC(CC(C4)C2)C3)CC1,active: 4.1
14,COc1cccc(C(=O)/C=C/c2ccc(SC)cc2)c1,0.0506
15,CC1CCc2nn(CC(=O)NCCCN3CCCC3=O)cc2C1 (stereo not drawn),-0.239
16,COc1ccc2oc(=O)c(C(C)=O)cc2c1,-0.473
17,CC1CCN(C(=O)CSc2nc3ccccc3c(=O)n2Cc2ccc3c(c2)OCO3)CC1,2.16
18,COc1cccc(-n2nnc3c(=O)n(Cc4ccc(C)cc4)cnc32)c1,0.0962
19,COc1ccc(OC)c(NC(=O)COC(=O)CN(C)S(=O)(=O)c2ccc(C)cc2)c1,-0.536
20,O=C(NCCCN1CCOCC1)C(C(=O)c1ccccc1)n1ccccc1=O (stereo not drawn),-0.175
21,Cc1c(Cl)cnc(NC(=O)COC(=O)C(NC(=O)c2ccco2)C(C)C)c1Cl (stereo not drawn),-1.73
22,CNC(=O)CSc1nnc(-c2cccnc2)n1CCc1ccccc1,0.335

row,Compound,z-score
1,Cc1nc2nc(Cc3ccccc3)[nH]n2c(=O)c1Cl,-2.38
2,O=C(NC1(C(=O)NC2CCCCC2)CCCCC1)c1ccccn1,-0.2
3,Cc1nn(-c2ccccc2)c(N2CCCC2)c1/C=C1\N=C(c2ccccc2)OC1=O,-0.333
4,Cc1onc(-c2ccccc2Cl)c1C(=O)N1CCN=C1SCc1cccnc1,-0.157
5,c1ccc2sc(NC3=NCN(Cc4ccc5c(c4)OCO5)CN3)nc2c1,-0.226
6,Cc1noc(C)c1COc1ccc(C(=O)OC(C)C(=O)Nc2ccc(S(=O)(=O)N3CCOCC3)cc2)cc1 (stereo not drawn),0.0892
7,Cc1nnc(NC(=O)CSCc2ccccc2)s1,0.148
8,Cc1ccsc1-c1nc(-c2ccccc2)c(-c2ccccc2)[nH]1,-0.0246
9,O=C(CCn1ccc2ccccc21)NC1CCCc2ccccc21 (stereo not drawn),-0.387
10,CCOC(=O)C1CCCN(c2nc3ccccc3nc2C(C#N)C(=O)NCc2ccccc2)C1 (stereo not drawn),-1.4
11,CCOc1ccc2nc(SCc3ccc(C(=O)OC)o3)[nH]c2c1,-0.628
12,NC(=O)C1CCN(C(=O)C2CCN(S(=O)(=O)c3ccccc3)CC2)CC1,0.78
13,COC(=O)CSc1nc2sc3c(c2c(=O)n1-c1ccccc1)CCN(C)C3,0.144
14,Cc1ccc2c(Cl)c(C(=O)NCCCn3ccnc3)sc2c1,-0.348
15,CCOC(=O)c1c(NC(=O)CN2CCCCC2)sc2c1CCN(C(=O)OCC)C2,0.0144
16,COc1ccc(NC(=S)Nc2cc(C)ccn2)c(OC)c1,-0.121
17,O=C(CSC1=NCCS1)Nc1ccc(S(=O)(=O)NC2CCCCC2)cc1,0.0744
18,COc1ccc(Nc2ncnc3c2cnn3Cc2ccccc2)cc1OC,-0.181
19,COc1ccccc1N1CCN(C(CNS(=O)(=O)c2ccc(C)cc2)c2cccnc2)CC1 (stereo not drawn),-0.377
20,Cc1cccc2sc(NC(=O)C3CCN(S(=O)(=O)c4cc([N+](=O)[O-])ccc4Cl)CC3)nc12,0.0365

# Reference: PubChem BioAssay AID488969 (Vanderbilt High Throughput Screening Facility, 2010)
